Measured values from PubChem BioAssay AID504832 (National Center for Advancing Translational Sciences (NCATS), 2011).
About 18,000 (5.8%) of roughly 310,000 compounds were called active. The inconclusive results got no clear call from the source; some entries with a clear call stand among them for comparison. Calls follow the shape of the dose curve; as a rule, active = well fitted inhibition curve with a large enough effect; inconclusive = small, poorly fitted or top-dose-only effect, or another doubt; inactive = no such curve, though single readings can be large or run the other way. Potencies of inconclusive entries are left out as doubtful fits. Residues, ends and D or L forms follow the SMILES beside them. *: point of attachment. Boc = CC(C)(C)OC(=O)*; Bn = c1ccc(C*)cc1; NHNH2 = NN*

assay: Primary qHTS for delayed death inhibitors of the malarial parasite plastid, 48 hour incubation; settings: P. falciparum luciferase growth in erythrocytes; series mostly up to 28.7 µM; activity change, negative = inhibition: at the top concentration
Procedure, shortened: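 Luciferase-expressing P. falciparum in infected erythrocytes (2% hematocrit, 0.1% parasitemia final) in RPMI 1640/0.5% Albumax were exposed to compound for 48 hours at 37 C, 5% CO2; growth read as luminescence.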
% is scaled to controls: 0 for no effect and ±100 for the full control effect; potency is read from the fitted curve at half-maximal effect; tags tell the direction and shape of the fitted curve.

SMILES	Potency	activity change, negative = inhibition
Cc1ccc(CNC(=O)Cn2ccc3cc(S(=O)(=O)N4CCCCCC4)ccc32)cc1	inconclusive [inhibitor, single point]	–
CCCCN(C)C(=O)Cn1ncc2c3ccccc3n(CCC)c2c1=O	inconclusive [inhibitor, single point]	–
CCOC(=O)c1c(NC(=O)Nc2cccc(Cl)c2)sc(C)c1C	inconclusive [inhibitor, single point]	–
Cc1ccc2[nH]c3c(=O)n(CC(=O)Nc4ccccc4N4CCN(C)CC4)ncc3c2c1	inconclusive [inhibitor, single point]	–
COc1ccccc1-n1c(SCC(=O)NC2CCS(=O)(=O)C2)nc2cc([N+](=O)[O-])ccc21 (stereo not drawn)	inconclusive [inhibitor, single point]	–
CC(C)CC(NC(=O)C(COCc1ccccc1)NC(=O)OC(C)(C)C)C(=O)NN (stereo not drawn) (Boc-Ser(Bn)-Leu-NHNH2; configuration not given here)	inconclusive [inhibitor, partial curve, poor fit]	–
Cn1c(SCC(=O)NC2CCCCC2)nnc1-c1ccccn1	–	inactive: 12.5%
O=C(N/N=C/c1ccc([N+](=O)[O-])s1)c1cccnc1	active: 9.28 µM	–
NNC(=O)[C@H](Cc1ccccc1)NC(=O)Nc1ccc2c(c1)OCCO2	active: 9.28 µM	–
CN(CC(=O)NCCc1ccccc1)S(=O)(=O)c1ccc(Br)cc1	–	inactive: -6.29%
CCOC(=O)c1sc(S(C)=O)c2c1CCc1conc1-2 (stereo not drawn)	inconclusive [inhibitor, partial curve]	–
COc1ccc(N(CC(=O)NCc2ccc(F)cc2)C(=O)c2snc(C(N)=O)c2N)cc1OC	–	inactive: 0.744%
O=C(Nc1ccc([N+](=O)[O-])cc1)c1ccc(Cn2cc([N+](=O)[O-])cn2)cc1	inconclusive [inhibitor, partial curve]	–
Cc1cccnc1NCc1ccc(O)c2ncccc12	inconclusive [inhibitor, single point]	–
COc1ccc(NC(=O)CNC(=O)C23CC4CC(CC(C4)C2)C3)c(OC)c1	inconclusive [inhibitor, single point]	–
CCOc1ccc(Br)cc1S(=O)(=O)Nc1cccc(S(=O)(=O)N(C)C)c1	–	inactive: -2.95%
Cc1cc(C)nc(-n2nc(C)cc2NC(=O)c2cccc(S(=O)(=O)N3CCOCC3)c2)n1	inconclusive [inhibitor, full curve, poor fit]	–
COc1cc(NC(=O)C2=C(N3CCOCC3)/C(=C\c3ccc(Br)cc3)CC2)cc(OC)c1OC	–	inactive: -8.02%
